From publication PMC4336329 (PLoS ONE, 2015)
The whole screen tested about 310,000 compounds, of which about 14,000 (4.5%) showed an effect of 50% or more. Effects have a minus sign here. The list shows a part of the results.

Biological target: human ether-à-go-go-related gene (hERG) potassium channel (human, UniProt Q12809)
Assay: primary screen, population patch clamp on CHO cells stably expressing hERG
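Also: peak tail current of the secondary pulse compared with the same well before compound.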

Sequence of human ether-à-go-go-related gene (hERG) potassium channel (Q12809 whole entry, looked up): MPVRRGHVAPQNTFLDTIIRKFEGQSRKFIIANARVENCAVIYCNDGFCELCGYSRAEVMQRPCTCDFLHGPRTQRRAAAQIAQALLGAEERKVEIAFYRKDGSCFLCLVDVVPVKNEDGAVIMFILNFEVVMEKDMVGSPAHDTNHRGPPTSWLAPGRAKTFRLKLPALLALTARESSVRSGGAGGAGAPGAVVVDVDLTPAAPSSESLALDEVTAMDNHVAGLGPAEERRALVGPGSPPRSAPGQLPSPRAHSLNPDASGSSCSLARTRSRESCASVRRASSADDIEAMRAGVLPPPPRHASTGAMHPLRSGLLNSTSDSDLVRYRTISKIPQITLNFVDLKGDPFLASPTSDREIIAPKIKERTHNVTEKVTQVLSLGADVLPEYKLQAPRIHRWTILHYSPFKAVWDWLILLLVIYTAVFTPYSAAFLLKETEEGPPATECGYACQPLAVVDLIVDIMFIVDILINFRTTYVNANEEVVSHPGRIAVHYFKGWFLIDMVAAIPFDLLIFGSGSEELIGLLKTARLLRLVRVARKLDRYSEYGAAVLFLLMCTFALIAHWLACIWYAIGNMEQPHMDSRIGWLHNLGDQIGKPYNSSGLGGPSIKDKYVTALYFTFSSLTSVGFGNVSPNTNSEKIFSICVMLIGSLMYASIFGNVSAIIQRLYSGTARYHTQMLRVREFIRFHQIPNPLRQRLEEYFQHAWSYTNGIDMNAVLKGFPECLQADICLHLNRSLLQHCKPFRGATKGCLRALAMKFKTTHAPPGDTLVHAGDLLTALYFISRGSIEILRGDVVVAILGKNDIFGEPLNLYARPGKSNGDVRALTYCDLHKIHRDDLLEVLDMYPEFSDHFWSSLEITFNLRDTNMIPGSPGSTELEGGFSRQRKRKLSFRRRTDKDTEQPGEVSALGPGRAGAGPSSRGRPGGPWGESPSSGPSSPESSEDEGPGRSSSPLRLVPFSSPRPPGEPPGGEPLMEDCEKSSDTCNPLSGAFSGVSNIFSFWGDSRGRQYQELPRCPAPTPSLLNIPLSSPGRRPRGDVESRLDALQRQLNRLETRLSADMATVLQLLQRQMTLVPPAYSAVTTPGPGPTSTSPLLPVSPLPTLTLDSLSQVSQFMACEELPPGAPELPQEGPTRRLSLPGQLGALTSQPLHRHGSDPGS

Row | Structure (SMILES) | hERG current change (%, negative = inhibition) at 10uM [%]
1 | COc1cccc(C(=O)NC(C)C(c2cccs2)N2CCOCC2)c1 (centres unmarked) | -11.2
2 | CC(=O)C1=C(C)NC(=O)NC1c1cc(Br)ccc1OCC(N)=O (centres unmarked) | 3.24
3 | CC1=C(C(=O)OC(C)C)C(c2c(O)ccc3ccccc23)NC(=O)N1 (centres unmarked) | 8.55
4 | CN(c1ccccc1)S(=O)(=O)c1cccc2ccccc12 | -15.6
5 | CCCCNC(=O)CSc1nc2ccc(N3CCOCC3)cc2c(=O)n1CCc1ccccc1 | -19.3
6 | CCOC(=O)C1CCN(C(=O)COC(=O)CN(C)S(=O)(=O)c2ccc(NC(C)=O)cc2)CC1 | 11.7
7 | COc1ccc(NC(=O)COC(=O)c2ncc(Cl)c(Cl)c2Cl)c(OC)c1 | 11
8 | CCc1ccc(-c2cc(C)no2)cc1S(=O)(=O)Nc1ccc(Cl)cn1 | 12.2
9 | CCOC(=O)c1c(NC(=O)COC(=O)c2ccccc2NC)sc(C(=O)N(C)C)c1C | 16.2
10 | CCc1c(C)nc2cc(-c3ccc(Cl)cc3)[nH]n2c1=O | -2.29
11 | Cc1ccc2cc(NC(=O)Cc3ccccc3)ccc2n1 | 8.3
12 | Cc1ccc(C(C)NC(=S)NCc2ccc(F)cc2)c(C)c1 (centres unmarked) | 13.6
13 | O=C(CC(=O)Nc1cccc(Cl)c1Cl)Nc1cccc(Cl)c1Cl | 19
14 | CCCc1nnc(SCC(=O)N2CCOCC2)n1CCCOC | 5.79
15 | O=C(NCc1ccco1)c1ccc2c(c1)C(=O)c1ccccc1-2 | -8.64
16 | COc1ccc(NC(=O)c2c(C)noc2-c2snnc2C)cc1 | -1.51
17 | CC(C)N(C(=O)CSc1nnc(NC(=O)c2ccco2)s1)C(C)C | 18.3
18 | Cn1c2c(c(=O)n(C)c1=O)C(c1cc3c(cc1Br)OCO3)CC(=O)N2 (centres unmarked) | 3.46
19 | Cc1ccc(OCC(=O)Nc2ccc(N3CCN(C(=O)c4ccc(C)cc4)CC3)cc2)cc1 | 9.99
20 | C/C(CCc1ccccc1)=N\NC(=O)c1ccccc1 | 5.77
21 | CSc1ccccc1OCc1cc(C(=O)NC2CCOC2)no1 (centres unmarked) | -1.92
22 | Cc1ccc(OCCNC(=O)CCNS(=O)(=O)c2ccc(C)cc2)cc1 | -12.6

Row | Structure (SMILES) | hERG current change (%, negative = inhibition) at 10uM [%]
23 | Cc1ccnc(NC(=O)CCC2COc3ccccc3O2)c1 (centres unmarked) | 7.3
24 | CN(C)c1cccc2cccc(N(C)C)c12 | -3.13
25 | COc1cccc(-c2cc(C(=O)N3CCN(C(=O)c4ccco4)CC3)on2)c1 | -13.9
26 | Cc1ccc(C)c(N(CC(=O)NCCC2=CCCCC2)S(C)(=O)=O)c1 | -14.8
27 | CC(=O)C1=C(O)C(=O)N(c2ccc(O)cc2)C1c1ccccc1Cl (centres unmarked) | 16.4
28 | O=C(NC(=S)NNC(=O)c1ccccc1O)c1ccc(F)cc1 | 13.1
29 | COc1nc(Oc2ccc(=O)n(C)n2)nc(N(C)C)n1 | 0.595
30 | Cc1ccc(OCC(=O)N/N=C/c2cccnc2)cc1 | -9.84
31 | CCCc1nc2ccc(NC(=O)c3ccco3)cc2c(=O)n1Cc1ccccc1Cl | 9.61
32 | CC(=Nc1ccccc1C(F)(F)F)c1ccncc1 | 21.9
33 | COc1ccc(N2CCN(C(CNC(C)=O)c3ccc4c(c3)OCO4)CC2)cc1 (centres unmarked) | -0.207
34 | CCN(CC(=O)Nc1ccc2c(c1)OCCO2)C(=O)c1ccc(Cl)cc1Cl | -10.7
35 | CC1CCCN(C(=O)CSc2nc3ncccc3[nH]2)C1 (centres unmarked) | 3.77
36 | Cc1nn(C(=O)N(C)C)c(C)c1CN1C(=O)c2ccccc2C1=O | 13.8
37 | COC(C(=O)Nc1ccnn1C1CCN(Cc2ccc(C)o2)CC1)c1ccccc1 (centres unmarked) | -2.65
38 | Cc1ccc(-n2c(SCC(=O)N3CC(=O)Nc4ccccc43)nc3ccccc3c2=O)cc1 | -1.05
39 | CCn1nc(NC(=O)C2CCCO2)c2cc3cc(C)ccc3nc21 (centres unmarked) | -4.48
40 | CCCCNC(=O)C1C2C=CC3(CN(Cc4ccccc4Cl)C(=O)C13)O2 (centres unmarked) | 9.19
41 | COc1ccc([N+](=O)[O-])cc1NC(=O)COC(=O)c1ccccc1C(=O)c1ccccc1 | -4.06
42 | CN(C(=O)c1ccc2c(=O)n3c(nc2c1)CCCCC3)c1cccc(Cl)c1 | -16.4
43 | CCOC(=O)c1ccccc1NC(=O)c1n[nH]c(=O)c2ccccc12 | -0.609
44 | CN(CC(=O)Nc1cccc(F)c1)CC(=O)Nc1ccc(Cl)cc1[N+](=O)[O-] | 5.57

Row | Structure (SMILES) | hERG current change (%, negative = inhibition) at 10uM [%]
45 | CCOC(=O)c1c(NC(=O)COc2cccc3c2CCN(CC)C3=O)sc2c1CCC2 | 9.27
46 | CN(CC(=O)Nc1ccc(Cl)cc1)CC(=O)Nc1cc(Cl)ccc1C#N | -38.4
47 | Cc1c(N=C2SCC(=O)N2c2c(C)n(C)n(-c3ccccc3)c2=O)c(=O)n(-c2ccccc2)n1C | -3.14
48 | O=C(Nc1ncc2c(n1)CC(c1ccco1)CC2=O)c1ccc(Cl)cc1 (centres unmarked) | -21.2
49 | CC1(O)CC(c2ccc(Cl)cc2)=NN1C(=O)c1ccc([N+](=O)[O-])cc1 (centres unmarked) | 11.5
50 | COc1ccc(CNC(=O)C(c2ccc(C)o2)N(C(=O)c2csnn2)c2ccc(C(C)C)cc2)cc1 (centres unmarked) | -42.9
51 | O=C(CSc1ccc(Cl)cc1)NCc1ccncc1 | -14.2
52 | CC(OC(=O)c1ccc(NS(=O)(=O)c2ccc3[nH]c(=O)[nH]c3c2)cc1)C(=O)Nc1cccc(Cl)c1Cl (centres unmarked) | 11.1
53 | CCOc1ccc(C(=O)O/N=C(\N)c2ccccn2)cc1 | 24.7
54 | CC(CC(=O)OCC(=O)Nc1ccc2[nH]c(=O)[nH]c2c1)c1ccccc1 (centres unmarked) | 4.41
55 | Cc1ccc2nc(-c3cccc(S(=O)(=O)N4CC(C)OC(C)C4)c3)cn2c1 (centres unmarked) | -11.8
56 | CCCNC(=O)CN1C(=O)c2ccccc2Sc2ncccc21 | 9.33
57 | Cc1n[nH]c(=O)nc1NCc1ccccc1Cl | 3.23
58 | COc1ccc(NS(=O)(=O)c2ccc(S(=O)(=O)N3CCOCC3)cc2)cc1 | -41.8
59 | CN(CC(=O)OCC(=O)NC(=O)c1cccn1C)S(=O)(=O)c1ccc(Cl)cc1 | 10.1
60 | Cc1nc2sccc2c(=O)n1-c1ccccc1Cl | 5.16
61 | CN1CCN(c2ccc([N+](=O)[O-])c(Sc3nncn3C)c2)CC1 | -9.71
62 | CC(=O)c1c(C)[nH]c(C(=O)CSc2nnc(-c3ccc(Cl)cc3)n2CC2CCCO2)c1C (centres unmarked) | -25.9
63 | Cl.O=C(c1ccco1)N1CCN(CCOc2ccc(F)cc2)CC1 | -47.4
64 | Cc1cc(C)cc(NS(=O)(=O)Cc2ccccc2)c1 | -7.38
65 | Cc1ccc(C(=O)N/N=C/c2ccc([N+](=O)[O-])s2)cc1 | 10.7
66 | COCCNC(=O)CCSc1nc(-c2ccc(OC)cc2)cc(C(F)(F)F)n1 | -4.81

Row | Structure (SMILES) | hERG current change (%, negative = inhibition) at 10uM [%]
67 | Cc1ccc(S(=O)(=O)/N=C(\N)Nc2nc(C)c3ccc(C)cc3n2)cc1 | -23.2
68 | Cc1cc(C)c2nc(N(CCN(C)C)C(=O)c3ccc(S(=O)(=O)N(C)CC4CCCO4)cc3)sc2c1.Cl (centres unmarked) | -43.6
69 | O=S(=O)(c1ccc(Cl)cc1)c1ccccn1 | -2.49
70 | Cc1ccc(CNC(=O)C2CCC(=O)N2C2CCCCC2)cc1 (centres unmarked) | 9.79
71 | C(=N\NC1=Nc2cccc3cccc1c23)/c1cccnc1 | -5.08
72 | CCCc1[nH]n(-c2nc3ccccc3s2)c(=O)c1C=NCC1CCCO1 (centres unmarked) | -65.5
73 | CCN1CCN(C(=O)Cc2ccc(C)cc2)CC1 | 15.9
74 | CC(C)CN(C(=O)CCC(=O)OC(C)C(=O)Nc1cccc(C#N)c1)c1c(N)n(CC(C)C)c(=O)[nH]c1=O (centres unmarked) | 17.2
75 | Cc1ccc(N=C2S/C(=C/c3cccc(OCC(=O)O)c3)C(=O)N2C)cc1C | 20.5
76 | Cc1ccc(NC(=O)c2cc(C(=O)Nc3ccc(C)cc3)n(C)n2)cc1 | 7.29
77 | O=C(N/N=C/c1ccc([N+](=O)[O-])o1)C1CCCC1 | 10.6
78 | Cn1nc(C(C)(C)C)cc1C(=O)NNC(=O)c1ccc(C(F)(F)F)cc1 | 9
79 | Cc1cc(C)c2cc(CN(CCO)C(=O)NC3CCCCC3)c(=O)[nH]c2c1 | -3.62
80 | CCC(=NCC1CCCO1)c1c(O)n(-c2ccc(Cl)cc2)c(=O)[nH]c1=O (centres unmarked) | 4.76
81 | CCn1c(SCC(=O)Nc2c(C)n(C)n(-c3ccccc3)c2=O)nnc1-c1cccc(C)c1 | 28.9
82 | O=C(CNC(=O)c1[nH]cnc1C(=O)NC(c1ccccc1)c1ccccc1)OCc1ccccc1 | 13.2
83 | CN(CC(=O)NCC(=O)Nc1ccc(F)cc1)C1CCS(=O)(=O)C1 (centres unmarked) | 13.3
84 | CN(CCCN1CCOCC1)Cc1cn(C)nc1-c1ccccc1F | -6.99
85 | CC(C)c1cc(C(=O)N2CCCC(N3CCN(c4ccccc4F)CC3)C2)nc(N)n1 (centres unmarked) | -21.2
86 | COc1ccc(C(CNC(=O)c2ccc(NS(=O)(=O)c3cccc([N+](=O)[O-])c3)cc2)N2CCOCC2)cc1 (centres unmarked) | 15.1
